The results in this text go back to US20230416345A1 (NAVIGO PROTEINS, published 2023).

Experiment [1] has as its target T1, human collagen type V (human, UniProt P20908 559-1570; P05997 216-1229).
T1 construct: Bought; also called h Col V; type V collagen
Put plainly: ELISA, h Col V coated on the plate, A 450-600 nm. The procedure:
(§1) High binding plates (Greiner, 781061) were immobilized with 2.5 μg/ml recombinant human collagen type II (h Col II, Chondrex, CHX-20051), rabbit collagen type II (rbCol II, prepared from rabbit eyes), porcine collagen type II (p Col II, prepared from porcine eyes), human collagen type I, (h Col I, Sigma, C5483-1MG), human collagen type V (h Col V, Abcam, ab7537), human collagen type III (h Col Ill, Abcam, ab7535) and 67B89 (domain of fibronectin, produced in E. coli) respectively over night at 4° C. ELISA-plates were washed 3 times with PBST (PBS+ 0.1% Tween) and blocked with 3% BSA/0.5% Tween/PBS 2 h at RT. […] Plates were washed with PBST and incubated with biotinylated anti-StrepTag-ab (Antikörper-online, ABIN1573895) with a dilution of 1:10.000 for 1 h at rt. The binding was visualized with a-rabbit-IgG-HRP (Sigma, A9169) with a dilution of 1:10.000 and as substrate TMB Plus von KEM EN TEC Diagnostic, Kat-Nr. 4395.
(§2) Results. ELISA analysis clearly confirms the specific binding to type II collagen. […] No unspecific binding to type I collagen, type III collagen, type V collagen or to a domain of fibronectin (67B89) was detected (FIG. 2).

Experiment [2] has as its target T2, human collagen type I (human, UniProt P02452 in part; P08123 80-1119).
T2 construct: Bought; also called h Col I; type I collagen
T2 sequence (P02452 162-1218, chain 1 of 2): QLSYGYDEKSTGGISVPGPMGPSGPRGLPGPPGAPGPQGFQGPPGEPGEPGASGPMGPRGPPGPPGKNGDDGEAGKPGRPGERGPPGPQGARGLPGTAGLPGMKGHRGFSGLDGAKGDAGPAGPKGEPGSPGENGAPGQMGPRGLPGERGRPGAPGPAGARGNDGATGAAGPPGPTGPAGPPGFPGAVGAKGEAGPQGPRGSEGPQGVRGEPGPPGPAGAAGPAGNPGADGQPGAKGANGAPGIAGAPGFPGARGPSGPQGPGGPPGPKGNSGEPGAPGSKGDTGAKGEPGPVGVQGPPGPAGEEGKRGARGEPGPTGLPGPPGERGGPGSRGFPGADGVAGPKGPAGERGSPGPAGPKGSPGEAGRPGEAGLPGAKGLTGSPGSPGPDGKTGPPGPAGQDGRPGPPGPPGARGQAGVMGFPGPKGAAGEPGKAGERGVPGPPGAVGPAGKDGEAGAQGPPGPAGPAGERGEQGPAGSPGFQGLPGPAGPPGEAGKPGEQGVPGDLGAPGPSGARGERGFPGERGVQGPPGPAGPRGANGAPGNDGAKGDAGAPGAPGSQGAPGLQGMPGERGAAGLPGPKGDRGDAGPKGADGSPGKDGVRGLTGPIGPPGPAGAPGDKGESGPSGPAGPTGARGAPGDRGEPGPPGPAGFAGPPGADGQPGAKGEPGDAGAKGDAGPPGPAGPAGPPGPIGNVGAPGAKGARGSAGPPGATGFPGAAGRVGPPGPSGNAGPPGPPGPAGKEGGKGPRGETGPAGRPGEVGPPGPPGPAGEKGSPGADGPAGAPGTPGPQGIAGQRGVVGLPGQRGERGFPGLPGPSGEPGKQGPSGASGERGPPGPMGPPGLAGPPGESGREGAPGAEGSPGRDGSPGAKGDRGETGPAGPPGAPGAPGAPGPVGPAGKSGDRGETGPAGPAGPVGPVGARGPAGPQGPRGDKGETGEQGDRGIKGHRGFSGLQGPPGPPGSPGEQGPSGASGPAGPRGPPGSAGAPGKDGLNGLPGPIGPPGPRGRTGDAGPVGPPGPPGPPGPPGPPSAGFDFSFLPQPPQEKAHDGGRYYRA
T2 sequence (P08123 80-1119, chain 2 of 2, further chain): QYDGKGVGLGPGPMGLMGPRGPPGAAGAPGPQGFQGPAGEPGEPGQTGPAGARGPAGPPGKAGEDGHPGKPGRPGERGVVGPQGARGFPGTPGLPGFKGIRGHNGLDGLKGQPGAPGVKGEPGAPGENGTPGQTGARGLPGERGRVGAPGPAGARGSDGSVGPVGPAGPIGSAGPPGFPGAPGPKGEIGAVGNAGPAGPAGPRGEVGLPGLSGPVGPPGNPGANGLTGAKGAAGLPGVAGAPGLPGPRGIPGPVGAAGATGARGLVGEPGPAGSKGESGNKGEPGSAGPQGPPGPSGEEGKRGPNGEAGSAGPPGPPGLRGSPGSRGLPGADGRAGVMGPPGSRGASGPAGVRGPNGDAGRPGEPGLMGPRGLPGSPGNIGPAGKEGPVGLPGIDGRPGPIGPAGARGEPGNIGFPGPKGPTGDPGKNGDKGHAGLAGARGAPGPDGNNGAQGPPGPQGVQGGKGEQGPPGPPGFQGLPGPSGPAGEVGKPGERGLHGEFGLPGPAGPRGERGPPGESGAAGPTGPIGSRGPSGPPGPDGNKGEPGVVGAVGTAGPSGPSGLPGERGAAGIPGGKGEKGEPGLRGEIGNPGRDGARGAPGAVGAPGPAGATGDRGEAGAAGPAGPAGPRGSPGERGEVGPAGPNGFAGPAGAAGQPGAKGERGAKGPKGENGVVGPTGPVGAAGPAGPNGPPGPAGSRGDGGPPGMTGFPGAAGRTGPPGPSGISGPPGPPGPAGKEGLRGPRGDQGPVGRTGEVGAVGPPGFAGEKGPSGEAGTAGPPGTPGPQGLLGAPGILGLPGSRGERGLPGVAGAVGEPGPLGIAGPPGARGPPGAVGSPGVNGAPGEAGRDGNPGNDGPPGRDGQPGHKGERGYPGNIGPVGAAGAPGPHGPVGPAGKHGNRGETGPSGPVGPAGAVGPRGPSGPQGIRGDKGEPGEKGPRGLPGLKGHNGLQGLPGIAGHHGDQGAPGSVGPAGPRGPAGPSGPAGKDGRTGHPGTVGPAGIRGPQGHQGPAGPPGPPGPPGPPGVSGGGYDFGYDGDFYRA
Put plainly: ELISA, h Col I coated on the plate, A 450-600 nm. Here is the method: as §1, §2

T1 sequence (P20908 559-1570, chain 1 of 2): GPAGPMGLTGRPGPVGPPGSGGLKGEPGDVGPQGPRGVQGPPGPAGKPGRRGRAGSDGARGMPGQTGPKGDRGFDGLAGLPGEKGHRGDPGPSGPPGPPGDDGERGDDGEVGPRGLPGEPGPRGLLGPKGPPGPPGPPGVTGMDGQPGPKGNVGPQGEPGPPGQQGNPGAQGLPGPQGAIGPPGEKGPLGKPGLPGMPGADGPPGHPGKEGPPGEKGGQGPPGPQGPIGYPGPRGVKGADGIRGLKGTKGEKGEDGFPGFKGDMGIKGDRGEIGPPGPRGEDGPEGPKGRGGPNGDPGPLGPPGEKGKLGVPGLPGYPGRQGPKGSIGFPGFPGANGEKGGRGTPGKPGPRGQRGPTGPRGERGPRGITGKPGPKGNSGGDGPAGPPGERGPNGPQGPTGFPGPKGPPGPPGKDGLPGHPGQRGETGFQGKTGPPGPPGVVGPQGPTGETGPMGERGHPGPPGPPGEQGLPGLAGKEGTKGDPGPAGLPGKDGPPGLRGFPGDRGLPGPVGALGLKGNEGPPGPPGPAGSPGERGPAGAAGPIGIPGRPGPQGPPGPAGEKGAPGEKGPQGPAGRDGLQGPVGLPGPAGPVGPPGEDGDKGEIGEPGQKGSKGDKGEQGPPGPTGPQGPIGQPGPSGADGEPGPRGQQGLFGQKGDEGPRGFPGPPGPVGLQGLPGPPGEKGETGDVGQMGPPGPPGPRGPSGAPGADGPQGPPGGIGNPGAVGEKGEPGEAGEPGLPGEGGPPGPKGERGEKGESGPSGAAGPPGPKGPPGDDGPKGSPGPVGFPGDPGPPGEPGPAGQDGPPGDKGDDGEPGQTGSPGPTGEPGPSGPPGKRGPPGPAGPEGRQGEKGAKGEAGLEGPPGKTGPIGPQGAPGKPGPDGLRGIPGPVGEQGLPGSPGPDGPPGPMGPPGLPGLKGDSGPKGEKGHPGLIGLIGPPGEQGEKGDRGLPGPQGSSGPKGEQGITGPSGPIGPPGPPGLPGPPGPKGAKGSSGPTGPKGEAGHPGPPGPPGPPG
T1 sequence (P05997 216-1229, chain 2 of 2, further chain): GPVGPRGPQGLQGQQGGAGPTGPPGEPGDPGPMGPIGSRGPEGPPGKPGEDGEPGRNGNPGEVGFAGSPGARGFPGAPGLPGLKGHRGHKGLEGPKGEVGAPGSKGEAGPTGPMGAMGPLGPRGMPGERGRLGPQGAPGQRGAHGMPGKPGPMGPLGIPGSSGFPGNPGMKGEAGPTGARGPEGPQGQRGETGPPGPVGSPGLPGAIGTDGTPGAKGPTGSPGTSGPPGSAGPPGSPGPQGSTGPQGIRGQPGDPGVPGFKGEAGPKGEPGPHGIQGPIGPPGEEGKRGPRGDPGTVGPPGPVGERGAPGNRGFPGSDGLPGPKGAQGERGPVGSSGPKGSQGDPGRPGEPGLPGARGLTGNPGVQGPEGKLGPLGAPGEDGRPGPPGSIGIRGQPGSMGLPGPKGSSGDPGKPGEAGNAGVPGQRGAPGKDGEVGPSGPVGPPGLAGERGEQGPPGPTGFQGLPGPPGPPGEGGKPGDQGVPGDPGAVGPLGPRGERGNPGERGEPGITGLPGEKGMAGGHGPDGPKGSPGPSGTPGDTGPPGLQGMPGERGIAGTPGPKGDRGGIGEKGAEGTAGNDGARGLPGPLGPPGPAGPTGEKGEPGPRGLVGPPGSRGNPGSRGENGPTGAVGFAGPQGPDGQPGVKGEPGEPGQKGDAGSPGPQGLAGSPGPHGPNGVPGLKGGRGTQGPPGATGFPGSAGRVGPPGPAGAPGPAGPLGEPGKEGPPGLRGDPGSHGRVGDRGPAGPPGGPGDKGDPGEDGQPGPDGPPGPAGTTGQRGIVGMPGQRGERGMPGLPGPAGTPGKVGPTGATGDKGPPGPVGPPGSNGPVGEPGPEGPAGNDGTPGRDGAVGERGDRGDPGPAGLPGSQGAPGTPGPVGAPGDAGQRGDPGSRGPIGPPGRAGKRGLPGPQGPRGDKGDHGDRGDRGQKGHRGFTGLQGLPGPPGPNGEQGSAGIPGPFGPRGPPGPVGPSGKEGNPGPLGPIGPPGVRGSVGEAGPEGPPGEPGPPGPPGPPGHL

B1: CID 212704 (SEQ ID NO: 42), tetramer of SEQ ID NO: 15 (designed binder)
chain: IAAKFDEAQQAADKEILHLPNLTEQQRNYFRQWLRDDPSVSPTVLGTAQQLNDSQAPKIAAKFDEAQQAADKEILHLPNLTEQQRNYFRQWLRDDPSVSPTVLGTAQQLNDSQAPKGGGSIAAKFDEAQQAADKEILHLPNLTEQQRNYFRQWLRDDPSVSPTVLGTAQQLNDSQAPKIAAKFDEAQQAADKEILHLPNLTEQQRNYFRQWLRDDPSVSPTVLGTAQQLNDSQAPKSAWSHPQFEK
notes: not shown: C-terminal Strep-tag (detected with anti-StrepTag antibody)
Turning to B1, the binding result in experiment [1] and in experiment [2] was “no binding (tested: 100 nM)” throughout.
